# PubChem BioAssay AID624418 (National Center for Advancing Translational Sciences (NCATS), 2012)
# Among all 410,000 compounds or so, about 530 (0.13%) were called active. Inconclusive means that the source gave no clear call. Such entries were picked first, then a sample of the others. The call rests on the fitted dose curve; in most records, active means well fitted inhibition curve with a large enough effect; inconclusive means small, poorly fitted or top-dose-only effect, or another doubt; inactive means no such curve, though single readings can be large or run the other way. A potency beside an inconclusive call is a rough fit, not a confirmed value.
# Assay: qHTS of GLP-1 Receptor Inverse Agonists: Cytotox Screen
# Details: HEK293 cAMP-luciferase reporter cells, luminescence, 24 h; series mostly up to 38.3 µM
# Summary of the method: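 Quantitative HTS format, 1536 wells, 200 cells/uL seeded. Compounds: 23 nL, 24 h, 37 °C. Detection: luciferase reagent, luminescence at 12 min RT; decreased signal taken as cytotoxic.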
# Potency means the concentration at half of the fitted maximal effect.
row,Compound,Potency
1,Cc1oc(S(=O)(=O)N2CCCC2)cc1C(=O)Nc1ccc(F)cc1,"inconclusive: 20 µM [inhibitor, single point]"
2,COCCCNC(=O)Cn1nnc(-c2ccccc2NC(=O)c2ccccc2F)n1,"inconclusive: 3.16 µM [inhibitor, full curve, poor fit]"
3,Cc1cc(C(=O)N/N=C/c2cc(Cl)cc([N+](=O)[O-])c2O)c2ccccc2n1,"inconclusive: 10 µM [inhibitor, partial curve, poor fit]"
4,Cc1cccc(NC(=O)CN2CCN(C(=O)CNC(=O)c3ccc(-c4ccccc4)cc3)CC2)c1C,"inconclusive: 5.01 µM [inhibitor, partial curve, poor fit]"
5,CC1(C)C(=O)Nc2ccccc2N1C(=O)COC(=O)c1ccc(Cl)c(S(=O)(=O)NCc2ccccc2)c1,"inconclusive: 28.2 µM [inhibitor, single point]"
6,O=C(NCc1cccnc1)c1ccc(COc2ccc3c(c2)CCC3)o1,"inconclusive: 11.2 µM [inhibitor, single point]"
7,NC(=S)N/N=C/c1c(O)ccc2ccccc12,inactive
8,CCNC(=O)C(C)Oc1ccc(Cl)cc1Cl (configuration not stated),inactive
9,COc1nc(NC2CCCCC2)nc(N2CCCCCC2)n1,"inconclusive: 22.4 µM [inhibitor, single point]"
10,COc1ccc(CC(=O)Nc2ccc(C(N)=O)cc2)cc1,"inconclusive: 14.1 µM [inhibitor, single point]"
11,Cc1ccc(-n2[nH]c(=O)c(-c3ccccn3)c2C)cc1,"inconclusive: 28.2 µM [inhibitor, single point]"
12,COCC(C)NC(=S)NCCc1ccc(Cl)cc1Cl (configuration not stated),"inconclusive: 14.1 µM [inhibitor, single point]"
13,O=C(CN1Cc2ccccc2C1=O)Nc1ccc2c(c1)OCCO2,inactive
14,Cc1ccnc(N(C(=O)Nc2ccccc2)C2=NCC(C)(C)S2)c1,"inconclusive: 22.4 µM [inhibitor, single point]"
15,Cc1ccc(C(=O)Nc2ncc(Cc3ccccc3)s2)o1,inactive
16,Nc1c(O)ccc2c1C(=O)c1ccccc1C2=O,"inconclusive: 31.6 µM [inhibitor, single point]"
17,Cc1ccc(C(C)C)c(OCC(=O)Nc2ccc3c(c2)nc(CCN2CCCCC2)n3C)c1,inactive
18,CCCCc1c(-c2ccc(OC)c(OC)c2)ncn1CCc1ccccc1OC,inactive
19,CCn1ncc(CN2CCCC(C(=O)Nc3cccc(-c4cc5ccccc5[nH]4)c3)C2)c1C (configuration not stated),"inconclusive: 10 µM [inhibitor, partial curve, poor fit]"
20,Cc1cc(Br)cn2c(Cc3ccccc3)c(-c3ccc(Cl)cc3)nc12,inactive
21,CCN1CCN(C(=O)c2cc3cc([N+](=O)[O-])ccc3oc2=O)CC1,"inconclusive: 2.82 µM [inhibitor, partial curve, poor fit]"

row,Compound,Potency
1,CCOc1ccccc1NC(=O)c1ccc2oc(=O)c(S(=O)(=O)c3ccc(F)cc3)cc2c1,inactive
2,O=C1[C@H](Cc2ccccc2)NCCCC[C@@H](c2ccc(Cl)cc2)N1Cc1ccccc1,"inconclusive: 7.08 µM [inhibitor, partial curve, poor fit]"
3,O=C(O)CCC(=O)NN1C(=O)c2ccccc2NC1c1ccco1 (configuration not stated),"inconclusive: 1.58 µM [inhibitor, partial curve, poor fit]"
4,COc1ccc(N=C2NC(=O)/C(=C\c3ccco3)S2)cc1,"inconclusive: 2.24 µM [inhibitor, full curve, poor fit]"
5,Cc1cccc(N2CCN(C(=O)Cn3nc(C)c4sc5ccccc5c4c3=O)CC2C)c1 (configuration not stated),inactive
6,COc1ccc2c(c1)OC[C@H]1[C@@H]2N2C(=O)CNC(=O)[C@@]2(C)[C@H]1c1ccccc1,"inconclusive: 1.78 µM [inhibitor, full curve, poor fit]"
7,O=S1(=O)N=C(N/N=C/c2cccs2)c2ccccc21,"inconclusive: 28.2 µM [inhibitor, single point]"
8,CCC(=O)N(CCc1ccccc1)Cc1cc2cc(OC)ccc2[nH]c1=O,inactive
9,Cc1ccc(-c2cc(C(=O)N/N=C/c3c[nH]c4ccccc34)n[nH]2)o1,"inconclusive: 10 µM [inhibitor, single point]"
10,CCCCN(CC)CCCNC(=S)Nc1ccc2nc(N3CCN(CC)CC3)cc(C)c2c1,"inconclusive: 0.447 µM [inhibitor, full curve, poor fit]"
11,CCOC(=O)c1c(S(=O)(=O)N2CCN(C3CCCCC3)CC2)c(C)n(C)c1C,"inconclusive: 7.08 µM [inhibitor, partial curve]"
12,NC(=S)n1[nH]c(-c2ccc([N+](=O)[O-])cc2)c(N=Nc2cccc(Cl)c2)c1=O,"inconclusive: 1 µM [inhibitor, full curve, poor fit]"
13,CCOC(=O)COc1ccc(Br)cc1C1NC(=O)NC(C)=C1C(=O)NCc1ccccc1 (configuration not stated),"inconclusive: 2.51 µM [inhibitor, full curve]"
14,N#CC(C(=O)Nc1ccc(Cl)c(Cl)c1)=C1Nc2ccccc2N1,"inconclusive: 28.2 µM [inhibitor, single point]"
15,COc1ccc(N(CC(=O)N2CCCCCC2)S(=O)(=O)c2ccccc2[N+](=O)[O-])c(OC)c1,"inconclusive: 22.4 µM [inhibitor, single point]"
16,CC(=O)Nc1ccc(C2=NNC(=Nc3ccc(S(=O)(=O)N4CCOCC4)cc3)SC2)cc1,inactive
17,CCOc1cc(C2c3c(oc4ccccc4c3=O)C(=O)N2Cc2ccc3c(c2)OCO3)ccc1O (configuration not stated),inactive
18,Cc1nc(NCc2ccco2)c2c(C)c(C)sc2n1,"inconclusive: 10 µM [inhibitor, partial curve, poor fit]"
19,CC(C)NC(=O)N1CCN(c2ccncc2S(=O)(=O)N2CCCCC2)CC1,"inconclusive: 0.501 µM [inhibitor, full curve, poor fit]"
20,Cc1nc2ccccc2c2oc(C(=O)NCCCN3CCCC(C)C3)cc12 (configuration not stated),"inconclusive: 10 µM [inhibitor, partial curve, poor fit]"
21,COc1cc(OC)cc(C(=O)N2CC(=O)Nc3ccccc32)c1,"inconclusive: 1.58 µM [inhibitor, partial curve, poor fit]"
